Results reported in PubChem BioAssay AID485364 (National Center for Advancing Translational Sciences (NCATS), 2010).
The whole screen tested about 360,000 compounds, of which about 11,000 (3.1%) were called active. Inconclusive means that the source gave no clear call. Such entries were picked first, then a sample of the others. Calls follow the shape of the dose curve; as a rule, active = well fitted inhibition curve with a large enough effect; inconclusive = small, poorly fitted or top-dose-only effect; inactive = no such curve, though single readings can be large or run the other way. Potencies of inconclusive entries are left out as doubtful fits.
Also: nearly all actives have a fitted effect of over 60% in size.
Potency is read from the fitted curve at half-maximal effect; tags tell the direction and shape of the fitted curve.

The compounds below were run against Schistosoma mansoni thioredoxin glutathione reductase (TGR) (UniProt Q962Y6) (assay: qHTS Assay for the Inhibitors of Schistosoma Mansoni Peroxiredoxins). Details: purified TGR, DTNB reduction, TNB absorbance 405 nm; series mostly up to 114 µM.
In short: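 First, TGR (20 nM dispensed) and NADPH were mixed with compound. Second, a 15 min room-temperature incubation followed. Third, further NADPH and then DTNB were added to start the reaction. Finally, TNB absorbance was monitored kinetically.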
In the case of CC(=O)c1sc(NC(=O)c2ccc(COc3ccccc3Cl)o2)nc1C, the Potency is reported as inconclusive [inhibitor, partial curve].
In the case of C=C(C)CSc1nnc(-c2cccc(Cl)c2)n1N, the Potency is reported as “inactive”.
With COC(=O)c1cccc(NC(=S)Nc2cc(Cl)ccc2OC)c1 the Potency was inconclusive [inhibitor, partial curve].
In the case of CC(C)Oc1cccc(C(=O)Nc2ccc(NC(=O)c3ccco3)cc2)c1, the Potency is reported as inconclusive [inhibitor, single point].
In the case of O=C(CN1CCN(Cc2ccc(Cl)cc2)C1=O)NCCCN1CCN(c2ccc(F)cc2)CC1, the Potency is reported as “inactive”.
For O=C(Nc1ccccc1Sc1ccccc1)C1CCCO1 (stereo unspecified), the Potency was active: 44.7 µM.
With O=C(c1ccco1)N1CCN(C2CC(=O)N(c3ccc(C(F)(F)F)cc3)C2=O)CC1 (stereo unspecified) the Potency was active: 50.1 µM.
For O=C(CC1C(=O)NCCN1CCCc1ccccc1)NCCc1ccccc1F (stereo unspecified), the Potency was inconclusive [inhibitor, partial curve].
With Cc1ccccc1C1=CCN(c2ncc(NC(=O)c3ccc(Cl)cc3)cc2C(=O)O)CC1 the Potency was active: 39.8 µM.
In the case of CC(C)c1ccc(N2C(=O)NC(=O)/C(=C/C=C/c3ccco3)C2=O)cc1, the Potency is reported as inconclusive [inhibitor, partial curve].
CCC(=O)N(CCC(c1ccco1)c1ccccc1OC)Cc1cccs1 (stereo unspecified) was tested, and the Potency was active: 17.8 µM.
In the case of Cc1ccc(SCc2nc(-c3ccc(C(=O)Nc4cc(C)ccc4C)cc3)oc2C)cc1, the Potency is reported as “inactive”.
With Cc1cc(C)n2c(Nc3ccc4c(c3)OCCO4)c(-c3ccc(C)o3)nc2n1 the Potency was inconclusive [inhibitor, partial curve].
In the case of Cc1ccc(NC(=O)CSc2nc3ccc(NC(=O)COc4ccc(C)cc4)cc3s2)cc1, the Potency is reported as “inactive”.
In the case of Cc1ccc(NS(=O)(=O)c2ccc3c(c2)[C@H]2C=CC[C@H]2[C@@H](c2ccc(F)cc2)N3)cc1C, the Potency is reported as inconclusive [inhibitor, partial curve].
In the case of Cc1ccc(NC(=O)CN2C(=O)C3C4C=CC(C4)C3C2=O)cc1S(=O)(=O)N(C)C (stereo unspecified), the Potency is reported as “inactive”.
In the case of O=C(Nc1ccccc1F)c1coc(=O)c(Br)c1, the Potency is reported as “inactive”.
In the case of O=C(NCc1cccnc1)C(=O)NC1CCCCC1, the Potency is reported as inconclusive [inhibitor, partial curve, poor fit].
For COc1ccccc1N1CC(C(=O)NCCN2C(=O)S/C(=C\c3cccnc3)C2=O)CC1=O (stereo unspecified), the Potency was inconclusive [inhibitor, partial curve, poor fit].
For CN(C)c1ccc(CNc2ccc3c(c2)ncn3C(C)(C)C)cc1, the Potency was inconclusive [inhibitor, full curve].
O=C(NCc1ccco1)C1CC(c2c(Cl)cccc2Cl)=NO1 (stereo unspecified) was tested, and the Potency was active: 39.8 µM.
In the case of Oc1ccc(Cl)cc1C(C#Cc1ccccc1)N1CCOCC1 (stereo unspecified), the Potency is reported as inconclusive [inhibitor, full curve].
For Cc1ccc(C)c(N2CCN(C(=O)c3ccc4nc(-c5ccco5)c(-c5ccco5)nc4c3)CC2)c1, the Potency was active: 6.31 µM.
In the case of O=C(COC(=O)c1c2c(nc3ccccc13)/C(=C/c1ccco1)CC2)NC1CCCC1, the Potency is reported as active: 5.01 µM.
With CCOc1ccccc1N1Cc2cc(C)c(C)cc2C1 the Potency was inconclusive [inhibitor, partial curve].
For Cc1conc1NC(c1cccs1)c1ccc2cccnc2c1O (stereo unspecified), the Potency was inconclusive [inhibitor, full curve, poor fit].
C=CCN1C(=O)C2(C(C(=O)c3ccc(C)o3)=C(O)C(=O)N2CCCN2CCOCC2)c2ccccc21 (stereo unspecified) was tested, and the Potency was inconclusive [inhibitor, partial curve].
For Cc1ccc(C)c(-c2cc(C(=O)NC3CC3)c3ccccc3n2)c1, the Potency was inconclusive [inhibitor, partial curve, poor fit].
For O=C(NC(N1CCCCCC1)C(Cl)(Cl)Cl)c1ccccc1Cl (stereo unspecified), the Potency was inconclusive [inhibitor, full curve].
In the case of COc1ccc(C2C=C(c3ccccc3)Nc3ncnn32)cc1 (stereo unspecified), the Potency is reported as active: 31.6 µM.
Cc1cc(C)nc(SCCCNCc2c(F)cccc2Cl)n1 was tested, and the Potency was inconclusive [inhibitor, full curve, poor fit].
CCOC(=O)C1CCCN(Cc2nc3ccc([N+](=O)[O-])cc3c(=O)n2-c2ccc(OC)cc2OC)C1 (stereo unspecified) was tested, and the Potency was inconclusive [inhibitor, full curve].
In the case of O=c1c2ccccc2nc(-c2ccccc2)n1Cc1ccco1, the Potency is reported as inconclusive [inhibitor, partial curve].
In the case of N#C/C(=C(\O)CCl)c1nnc2n1CCCCC2, the Potency is reported as inconclusive [inhibitor, partial curve].
For Cc1ccsc1C1C=C(c2cccc(Br)c2)Nc2ncnn21 (stereo unspecified), the Potency was inconclusive [inhibitor, partial curve, poor fit].
With CCCCn1c(NC(=O)c2ccco2)c(S(=O)(=O)c2ccc(C)cc2)c2nc3ccccc3nc21 the Potency was inconclusive [inhibitor, full curve].
For Cc1ccc(-n2nc3c(c2NC(=O)c2ccc4c(c2)OCO4)CS(=O)(=O)C3)cc1, the Potency was inconclusive [inhibitor, partial curve].
With CCN1CCN(Cc2cc(C(C)(C)C)c(O)c(C(C)(C)C)c2)CC1 the Potency was active: 2.82 µM.
With O=C(Nc1ccc(F)cc1F)c1cc2ncc(Br)cn2n1 the Potency was inconclusive [inhibitor, single point].
In the case of COc1ccc(CC(=O)Nc2ccccc2N2CCCCC2)cc1OC, the Potency is reported as “inactive”.
With O=C(CSc1nnc2ccc(-c3ccc(Br)cc3)nn12)NCC1CCCO1 (stereo unspecified) the Potency was “inactive”.
With NC(=O)c1c(NC(=O)c2ccc(F)cc2)sc2c1CCC2 the Potency was inconclusive [inhibitor, partial curve].
In the case of Oc1ccc(C[C@@H]2CNC(=S)N2CCCCC2CCCCC2)cc1, the Potency is reported as “inactive”.
For Cc1onc(-c2c(F)cccc2Cl)c1C(=O)OCC(=O)NCc1ccco1, the Potency was active: 17.8 µM.
With CCOC(=O)CNC(=O)c1cc(OC)cc(OC)c1 the Potency was inconclusive [inhibitor, single point].
With COc1cccc(CC(CC(=O)O)C(=O)Nc2cc(C)ccc2C)c1 (stereo unspecified) the Potency was inconclusive [inhibitor, partial curve].
O=C(CSc1nc2ccccc2nc1N1CCOCC1)N1CCN(c2ccccc2)CC1 was tested, and the Potency was “inactive”.
With CC(=O)Oc1ccc(-c2cccc(C(=O)NCCCO)c2)cc1 the Potency was “inactive”.
In the case of O=C(CN1C(=O)c2ccc([N+](=O)[O-])cc2C1=O)NCc1ccco1, the Potency is reported as inconclusive [inhibitor, partial curve].
With CCN(CC)c1ccc(N=Cc2c(O)[nH]c(=O)[nH]c2=O)cc1 the Potency was inconclusive [inhibitor, full curve, poor fit].
COc1ccc(CNC(=O)Cc2c(C)c3cc4c(C)coc4cc3oc2=O)cc1 was tested, and the Potency was “inactive”.
For COc1ccccc1N1CCN(C(c2cc3cc(C)ccc3[nH]c2=O)c2nnnn2C2CCCC2)CC1 (stereo unspecified), the Potency was inconclusive [inhibitor, partial curve].
For O=C(CSc1nnc(-c2ccc(O)cc2)n1Cc1ccco1)c1ccccc1, the Potency was active: 44.7 µM.
In the case of NS(=O)(=O)c1ccc(NC(=O)/C=C/c2ccco2)cc1, the Potency is reported as active: 6.31 µM.
COC(=O)C1=COC(C)C2CN3CCc4c([nH]c5ccccc45)C3CC12 (stereo unspecified) was tested, and the Potency was active: 79.4 µM.
In the case of COc1ccc(C2=CC(c3sccc3C)n3nnnc3N2)cc1 (stereo unspecified), the Potency is reported as active: 35.5 µM.
For O=[n+]1c2c(n([O-])c3cc(F)c(F)cc31)CCCC2, the Potency was inconclusive [inhibitor, partial curve].
With CCc1nn(C(CC)C(=O)NCc2cccc(OC)c2)c(=O)c2cc3occc3n12 (stereo unspecified) the Potency was inconclusive [inhibitor, full curve, poor fit].
For CCOC(=O)c1ccc(CNC(=O)c2cc(C(C)(C)C)oc2C)o1, the Potency was inconclusive [inhibitor, full curve].
In the case of COc1ccc(N=C2SC(CC(=O)Nc3ccc(F)cc3)C(=O)N2Cc2ccco2)cc1 (stereo unspecified), the Potency is reported as inconclusive [inhibitor, partial curve].
Cc1occc1C(=O)Nc1cccnc1 was tested, and the Potency was inconclusive [inhibitor, single point].
O=C(NC(=S)NCc1cccnc1)c1ccc([N+](=O)[O-])cc1 was tested, and the Potency was “inactive”.
CC(=O)Nc1ccc(N/C=C/C(=O)c2ccco2)cc1 was tested, and the Potency was “inactive”.
COc1ccc(OC)c(-c2[nH]nc3c2C(c2ccco2)C(C#N)=C(N)O3)c1 (stereo unspecified) was tested, and the Potency was inconclusive [inhibitor, partial curve].
For O=C(COC(=O)c1ccc([N+](=O)[O-])o1)Nc1nc2ccccc2s1, the Potency was active: 28.2 µM.
For COc1ccc(N(CC(=O)NC2CCCC2)C(=O)c2ccc(N3CCCCC3)nc2)cc1, the Potency was “inactive”.
CN1CCN(C(=O)CN2C(=O)CC(C)(C)S(=O)(=O)c3ccccc32)CC1 was tested, and the Potency was inconclusive [inhibitor, partial curve, poor fit].
COc1ccccc1CNC(=S)Nc1ccc(S(N)(=O)=O)cc1 was tested, and the Potency was inconclusive [inhibitor, full curve].
For CC(C)(C)C(=O)N1CCN(C(c2ccccc2)c2ccccc2)CC1, the Potency was inconclusive [inhibitor, partial curve].
For Cn1c(SCC(=O)Nc2ccc3nc(SCC(=O)N4CCCC4)sc3c2)nnc1-c1ccc(N)cc1, the Potency was “inactive”.
For CCc1sc(NC(=O)CN2CCC(C(N)=O)CC2)nc1-c1ccccc1, the Potency was inconclusive [inhibitor, partial curve, poor fit].
